According to PubChem BioAssay AID540317 (National Center for Advancing Translational Sciences (NCATS), 2011):
The whole screen tested about 390,000 compounds, of which about 2,200 (0.56%) were called active. Inconclusive means that the source gave no clear call. Such entries were picked first, then a sample of the others. Calls come from the whole dose curve; as a rule, active = well fitted inhibition curve with a large enough effect; inconclusive = small, poorly fitted or top-dose-only effect; inactive = no such curve, though single readings can be large or run the other way. Potencies of inconclusive entries are doubtful fits and often do not repeat.

Each compound was assayed against Chromobox protein homolog 1 (Homo sapiens) (UniProt P83916) (assay: HTS for Inhibitors of HP1-beta Chromodomain Interactions with Methylated Histone Tails). Settings: AlphaScreen HP1-beta / biotin-H3K9me3 peptide binding; series mostly up to 114 µM; activity change, negative = inhibition: at the top concentration.
UniProt P83916, sequence (P83916 whole entry, looked up): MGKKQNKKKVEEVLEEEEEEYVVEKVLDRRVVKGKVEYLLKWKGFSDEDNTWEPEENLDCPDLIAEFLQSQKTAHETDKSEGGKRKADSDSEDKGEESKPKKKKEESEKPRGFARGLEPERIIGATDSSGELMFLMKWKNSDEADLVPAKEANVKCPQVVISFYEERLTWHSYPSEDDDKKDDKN
Procedure, shortened: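 HP1-beta protein (50 nM final) preincubated 30 min at room temperature with biotinylated H3(1-18)K9me3 peptide (50 nM) in PBS pH 7.4, 0.01% Tween-20, then compound added for 30 min. AlphaScreen streptavidin donor/nickel chelate acceptor beads (10 ug/mL final), 30 min dark, luminescence read.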
Note: nearly all actives have a fitted effect of over 70% in size.
Potency is the fitted concentration of half-maximal effect; tags give direction and shape of the fitted curve.

Structure (SMILES) | Potency | activity change, negative = inhibition
O=S(=O)(c1cccc2nsnc12)N1CCN(c2ccccc2F)CC1 | inconclusive: 25.1 µM [inhibitor, full curve] | 
CCOc1nc(Nc2ccc(OC)c(Cl)c2)nc(OCC)n1 |  | inactive: 25.4%
CCOc1ccc(S(=O)(=O)Nc2nc3ccccc3nc2N2CCN(C)CC2)cc1 |  | inactive: 30%
Cc1ccc(NC(=O)CN2C(=O)C(c3ccc(C)cc3)=NC23CCCCCC3)cc1 |  | inactive: 31.1%
COc1cccc(Nc2nc(-c3cccc(N4C(=O)c5ccccc5C4=O)c3)cs2)c1 | inconclusive: 6.31 µM [inhibitor, partial curve, poor fit] | 
O=C(O)c1ccc(-c2ccc(/C=C3\NC(=O)N(Cc4ccc(Cl)cc4)C3=O)o2)cc1Cl | active: 31.6 µM | 
O=C(CNC1CC1)Nc1cc(C(F)(F)F)ccc1Cl | inconclusive: 28.2 µM [inhibitor, partial curve, poor fit] | 
Cc1cc(O)ccc1N=Cc1c(C(F)(F)F)[nH][nH]c1=O | inconclusive: 50.1 µM [inhibitor, partial curve, poor fit] | 
COCCCN=C1NN=C(c2cc(C)n(Cc3ccccc3Cl)c2C)CS1 | inconclusive: 56.2 µM [inhibitor, single point] | 
CCOc1ccc(CN(C)CCc2ccccn2)cc1 | active: 25.1 µM | 
CCOC(=O)c1ccc(N=c2scc(C)n2CC)cc1 | inconclusive: 25.1 µM [inhibitor, full curve] | 
Cc1cc(C(=O)COC(=O)/C=C/c2cccc(Br)c2)c(C)n1C | inconclusive: 44.7 µM [inhibitor, partial curve] | 
COC(=O)CCC(=O)OC1(C)C(=O)C=C2C=C(c3ccsc3)OC=C2C1=O (stereo unspecified) | inconclusive: 50.1 µM [inhibitor, partial curve] | 
C/C(=N\NC(=O)c1cccc(N/N=C(\C)c2ccco2)c1)c1ccco1 |  | inactive: -1.2%
CC1CCN(C(=O)c2ccc3c(c2NCCO)C(=O)c2ccccc2C3=O)CC1 | inconclusive: 28.2 µM [inhibitor, single point] | 
O=C(Nc1cc(S(=O)(=O)N2CCOCC2)ccc1N1CCCCC1)c1cc(-c2ccccn2)nc2ccccc12 | inconclusive: 25.1 µM [inhibitor, partial curve] | 
O=C1C(=O)N(CCCN2CCOCC2)C(c2ccc([N+](=O)[O-])cc2)/C1=C(/O)c1ccc2c(c1)OCO2 (stereo unspecified) |  | inactive: 30.1%
CCN(CC)C(=O)C1CCCN(C/C=C/c2ccccc2)C1 (stereo unspecified) | inconclusive: 79.4 µM [inhibitor, single point] | 
N#C/C(=N\Nc1ccc(S(=O)(=O)N2CCCCC2)cc1)C(N)=S | inconclusive: 35.5 µM [inhibitor, partial curve] | 
O=[N+]([O-])c1ccc(N2CCCC2)cc1NCc1ccccc1 | inconclusive: 39.8 µM [inhibitor, partial curve] | 
Cc1cccc(OCC(=O)NNC(=O)CCCCC(=O)NNC(=O)COc2cccc(C)c2)c1 |  | inactive: 37.3%
COc1ccc(OC)c(Nc2nc(=O)c3cccnc3s2)c1 | inconclusive: 17.8 µM [inhibitor, full curve] | 
COC(=O)c1c(-c2cccc(C)c2)csc1N | inconclusive: 28.2 µM [inhibitor, partial curve, poor fit] | 

Structure (SMILES) | Potency | activity change, negative = inhibition
CCN(CC)c1ccc(/C=C/c2ccc3ccc(OC)cc3[n+]2CC)cc1 | inconclusive: 39.8 µM [inhibitor, partial curve] | 
COc1cc2c(Cc3ccccc3)cncc2cc1O |  | inactive: 12.5%
CN(C)c1ccc(C(=S)N2CCN(Cc3ccccc3)CC2)cc1 | inconclusive: 10 µM [inhibitor, full curve] | 
O=C(CN1CCCCCC1)N/N=C/c1cccc(Cl)c1Cl | inconclusive: 15.8 µM [inhibitor, partial curve] | 
N#Cc1nc(COc2ccccc2)oc1N1CCCCC1 | inconclusive: 28.2 µM [inhibitor, partial curve, poor fit] | 
CCN(CCN(C)C)C(=O)Cn1ncc2c([nH]c3ccc(C)cc32)c1=O |  | inactive: 27.5%
Cc1cc(SCC(=O)N/N=C/c2ccc(O)c(O)c2)nc2ccccc12 | inconclusive: 50.1 µM [inhibitor, partial curve] | 
CNc1cc(N2CCCCCC2)ccc1[N+](=O)[O-] | inconclusive: 39.8 µM [inhibitor, partial curve, poor fit] | 
Cc1ccc(CN2CCN(/N=C/c3ccc(Cl)c([N+](=O)[O-])c3)CC2)cc1 | inconclusive: 20 µM [inhibitor, full curve] | 
COc1ccc(Cl)cc1C(=O)Nc1ccc2c(c1)OCCO2 |  | inactive: 28.9%
CC1(c2ccccc2)CC(c2ccccc2)=C(C#N)C(=O)N1 (stereo unspecified) |  | inactive: 23.1%
CCN(CC)c1ccc(/C=N/NC(=S)NC)c(O)c1 | inconclusive: 12.6 µM [inhibitor, full curve, poor fit] | 
COc1ccc(C(=O)/C(=C\c2ccco2)N2C=CC=CC2=C(C#N)C#N)cc1 |  | inactive: 8.06%
Cc1c(C(C)(C)C)c(C=S)n2ccccc12 | inconclusive: 3.98 µM [inhibitor, full curve, poor fit] | 
CCOC(=O)N1CCN(Cc2nc3cc(NC(=O)c4ccc(F)cc4)ccc3n2C(C)C)CC1 |  | inactive: 37.3%
Cc1nc2ccccc2c(=O)n1NC(=O)c1ccc([N+](=O)[O-])cc1 |  | inactive: -2.32%
COc1ccc(NC(=O)CSc2nnc(Cc3cccn3C)n2-c2ccc(C)cc2)cc1OC | inconclusive: 39.8 µM [inhibitor, single point] | 
CC(C)c1c(C(=O)N/N=C/c2cccc(OCc3ccccc3)c2)nnn1-c1nonc1N |  | inactive: 7.29%
COc1cccc(OC)c1OCCCN1CCC(Cc2ccccc2)CC1 | inconclusive: 39.8 µM [inhibitor, partial curve] | 
COc1ccc(S(=O)(=O)Nc2ccccc2-c2nc3ccccc3[nH]c2=O)cc1 |  | inactive: 28.6%
CCCCn1nnnc1NCc1ccc(N2CCCC2)cc1 |  | inactive: -19%
Cc1c([C@H]2[C@@H](CC#N)C2(C)C)c2ccccc2n1C | inconclusive: 79.4 µM [inhibitor, single point] | 
COc1cc(NC(=O)Nc2ccccc2OC)c(OC)cc1NC(=O)CN1CCCCC1 | inconclusive: 89.1 µM [inhibitor, single point] | 
